# Test results reported in PubChem BioAssay AID1345083 (National Center for Advancing Translational Sciences (NCATS), 2018).
# The campaign covered roughly 94,000 compounds. About 6,200 (6.6%) were called active. The shares of active, inactive and inconclusive entries below differ from those in the screen. Calls come from the whole dose curve; as a rule, active = well fitted inhibition curve with a large enough effect; inconclusive = small, poorly fitted or top-dose-only effect; inactive = flat fitted curve, though single readings scatter. A potency beside an inconclusive call is a rough fit, not a confirmed value.
# Assay: Cytotoxic Profiling in HEK 293 Cell Line of Diverse Libraries Using Quantitative High-Throughput Screening; note: nearly all actives have a fitted effect of over 60% in size
# Settings: HEK 293 viability, ATP luminescence (CellTiter-Glo), 48-72 h; activity change, negative = cytotoxicity: at 115 µM (top of the series) unless noted; series mostly up to 115 µM
# Summary of the method: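 Cells seeded first (HEK 293, 250 cells/well), then compound added by pintool. Incubation ran 48 or 72 hr at 37 degree Celsius. CellTiter-Glo was added and luminescence imaged after 10 min at room temperature.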
# % is set by controls: 0 for no effect and ±100 for the full control effect; potency is the fitted concentration of half-maximal effect; tags give direction and shape of the fitted curve.
SMILES,outcome,Potency,"activity change, negative = cytotoxicity"
O=C1CCN(C(=O)C2CCN(C(=O)C3(c4ccccc4)CC3)CC2)CCCCCCN1,inactive,,
CC1=C[C@@H](CN(C)CCc2ccccn2)[C@H](C(C)C)C[C@H]1Cc1nnc(-c2ccncc2)o1,,active: 79.4 µM,
O=C(O)CCn1ncc2cc(OC3CCN(C(=O)CC4CC4)CC3)ccc21,inactive [at 172 µM],,
CCCOc1cccc(-c2nc(C(=O)NCC)cs2)c1,,active: 31.6 µM,
O=C(c1cc(-c2ccc(O)cc2)n[nH]1)N1CCCC(CCc2ccc(F)cc2)C1 (stereo not given),,"inconclusive: 10 µM [inhibitor, full curve, poor fit]",
N#Cc1ccc(CN2CC3CCC(C2)N3c2ccc(C(F)(F)F)cc2)cc1,,,inactive: 1.8%
CCCNC(=O)N1CCC(c2noc(COc3ccc(F)cc3)n2)C1 (stereo not given),,"inconclusive: 89.1 µM [inhibitor, single point]",
CN1Cc2nc(NCCOc3ccccc3)ccc2OCC1=O,,"inconclusive: 89.1 µM [inhibitor, partial curve]",
C(=C\c1ccccc1)/CN1CCN(Cc2cc3n(n2)CCCNC3)CC1,,"inconclusive: 89.1 µM [inhibitor, single point]",
Cc1nc(N2CCC(C(=O)NC3CCCCCC3)CC2)cc(C(F)(F)F)n1,,"inconclusive: 50.1 µM [inhibitor, partial curve, poor fit]",
CCn1ccc(C(=O)N2CCC(c3n[nH]c(=O)n3-c3ccc(C)cc3)CC2)n1,,,inactive: 8.06%
O=C1OC[C@@H]2CCN(Cc3ccccc3Cl)Cc3ccc(F)cc3N12,,active: 70.8 µM,
COCCNC(=O)c1ccc2c(c1)N(C)C(CC(=O)NCCO)CO2 (stereo not given),inactive,,
O=C(C1CCCN1C(=O)c1cccc(Cl)c1)N1CCC(N2CCOCC2=O)CC1 (stereo not given),,,inactive: -3.64%
O=C(NCCCN1CCCc2ccccc21)C1Cn2cccc2C(=O)N1Cc1ccccc1 (stereo not given),,"inconclusive: 79.4 µM [inhibitor, partial curve, poor fit]",
COc1ccc(-c2cc(N3CCC(NC(=O)Cc4ccc(F)cc4)CC3)n[nH]2)cc1,,"inconclusive: 79.4 µM [inhibitor, single point]",
O=C(c1ccc2nc(-c3ccc(F)cc3)cn2c1)N1CCC(F)CC1,,"inconclusive: 50.1 µM [inhibitor, partial curve, poor fit]",
O[C@H]1[C@H](NCc2ccc(OC(F)(F)F)cc2)[C@H]2CO[C@H](O2)[C@@H]1N1CCC(Cc2ccccc2)CC1,,active: 44.7 µM,
CC(C)c1ccc(NC(=O)c2ccc3c(c2)N(C)C2CCCN2C3=O)cc1 (stereo not given),,active: 44.7 µM,
COc1ccc(C(=O)N2CC(Oc3ccccc3-c3nc(-c4ccccc4)no3)C2)cc1,,active: 28.2 µM,
CN(C)C(=O)Cc1c[nH]c2ncc(-c3cnn(C)c3)cc12,,,inactive: -22.9% [at 230 µM]
Cn1ncc2c(C(=O)NCCc3ccccc3)cc(-c3cccc(F)c3)nc21,,"inconclusive: 25.1 µM [inhibitor, full curve]",
CN1C[C@H]2CN(Cc3cn(C)c4ccccc34)CCN2C1=O,,,inactive: -20.4% [at 172 µM]

SMILES,outcome,Potency,"activity change, negative = cytotoxicity"
Cc1ccccc1C(=O)N1CCCN(CCn2nc3n(c2=O)CCCC3)CC1,,,inactive: -2.65%
Cc1occc1C(=O)N1CCC2(CC1)CC(c1ccccc1)CN(C)C2 (stereo not given),,,inactive: -3.84%
CC(=O)Nc1ccc(CN2CCN3C(=O)N(Cc4ccc(C)cc4)C[C@H]3C2)cc1,,active: 79.4 µM,
Cc1ccccc1N1Cc2c(ncnc2N2CCN(c3ncccn3)CC2)N(C)CC1=O,,,inactive: -0.847%
COc1ccc(C(=O)NC2CCN(c3ccc(C)cc3)C2=O)cc1F (stereo not given),,"inconclusive: 70.8 µM [inhibitor, single point]",
COC(=O)c1ccc(CN2C(=O)[C@@H]3C[C@@H](O)CN3C3(CN(CC(C)C)C3)C2=O)cc1,inactive [at 172 µM],,
COc1ccccc1NC(=O)N1CCC(N(C(=O)C2CC2)C2CCOCC2)CC1,,,inactive: 18%
CNC1CCc2nn(C)c(=O)n2CC1 (stereo not given),,,inactive: -5.47%
COCC1CN(C2CCC2)CC12CCN(C(=O)c1ccc(C)s1)CC2 (stereo not given),,"inconclusive: 79.4 µM [inhibitor, partial curve, poor fit]",
CCOC(=O)C1CCCN(C(=O)c2nc3sccn3c2-c2ccc(C)cc2)C1 (stereo not given),,,inactive: -8.32%
CN(C)C(=O)c1cccnc1OC1CCN(S(=O)(=O)Cc2ccc(Cl)cc2)C1 (stereo not given),,"inconclusive: 56.2 µM [inhibitor, partial curve, poor fit]",
COc1ccc(NC(=O)NCC2Cn3cccc3CN2Cc2ccccc2)cc1 (stereo not given),,"inconclusive: 79.4 µM [inhibitor, partial curve, poor fit]",
Cc1ccc(C2Cn3nnc(-c4noc(-c5cccnc5)n4)c3CO2)cc1 (stereo not given),,"inconclusive: 79.4 µM [inhibitor, single point]",
CN1CCC(C2CCN(S(=O)(=O)c3cc(F)ccc3F)C2)CC1 (stereo not given),,,inactive: -23.3%
COc1ccc(-c2nc(C(C)C)nc3c2CN(C(=O)c2ccc(C(F)(F)F)cc2)CC3)cc1,,"inconclusive: 50.1 µM [inhibitor, partial curve, poor fit]",
COc1ccc(-c2ccnc(N[C@H]3CO[C@H]4[C@@H]3OC[C@@H]4NC(=O)Nc3cccc(C#N)c3)n2)cc1,,"inconclusive: 56.2 µM [inhibitor, partial curve, poor fit]",
Oc1ccc(NCCN2CCCC2)cc1,,"inconclusive: 126 µM [inhibitor, partial curve, poor fit]",
Cn1ncc2c(C(=O)NCc3ccccn3)cc(-c3cccc(F)c3)nc21,,"inconclusive: 63.1 µM [inhibitor, full curve, poor fit]",
O[C@@H]1C[C@@H](c2nc(-c3ccccc3)no2)N(Cc2ccncc2)C1,,"inconclusive: 79.4 µM [inhibitor, partial curve, poor fit]",
CCCCCNC(=O)c1cc(-c2ccc(C(F)(F)F)cc2)nc2c1cnn2C,,"inconclusive: 20 µM [inhibitor, full curve, poor fit]",
COC(=O)NC1CCN(Cc2cccc(-c3cccc(C)c3)c2)CC1,,"inconclusive: 50.1 µM [inhibitor, partial curve, poor fit]",
CC(C)(C)CC(=O)Nc1nc2c(s1)C[C@@H]1[C@](C)(CO)[C@H](O)CC[C@@]1(C)[C@@H]2CC(=O)Nc1cccc(O)c1,,"inconclusive: 56.2 µM [inhibitor, partial curve, poor fit]",
